# Where “and” joins values, the source holds several entries; their conditions need not be identical. Identical values can stand only once. The shares of active, inactive and inconclusive entries below differ from those in the screen. For some of these results: A potency beside an inconclusive call is a rough fit, not a confirmed value. Calls of active or inactive are those of the source. Unless noted, calls follow the shape of the dose curve; as a rule, active = well fitted curve in the direction sought with a large enough effect in the repeat runs; inconclusive = weak or mixed curves; inactive = no such curve, though single readings can be large; an effect the other way counts as inactive or inconclusive.
# Legend:
# [1] = molecular target: Peroxisome proliferator-activated receptor gamma (Homo sapiens) (UniProt P37231); assay: qHTS assay to identify small molecule agonists of the peroxisome proliferator-activated receptor gamma (PPARg) signaling pathway (AID 743094; active = well fitted activation curve with a large enough effect in the signal ratio in the repeat runs, not every such curve was filed as active; inconclusive = weak or mixed curves, or effect the other way; inactive = no such curve, though single readings can be large or run the other way; the % refers to the signal ratio; as to activation: % is scaled to controls: 0 for no effect and ±100 for the full control effect); conditions: HEK293H PPARg-UAS-bla, beta-lactamase FRET ratio, 17 h; activation: at 57 µM (top of the series) unless noted
# In short: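 Agonist activity was taken from a beta-lactamase reporter (FRET substrate, 1 h at room temperature) in HEK293H cells carrying a PPARg UAS-bla construct. Compounds in DMSO were incubated 17 h at 37C after a 5 h cell pre-incubation.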
# [2] = molecular target: Peroxisome proliferator-activated receptor gamma (Homo sapiens) (UniProt P37231); assay: qHTS assay to identify small molecule antagonists of the peroxisome proliferator-activated receptor gamma (PPARg) signaling pathway (AID 743191; calls by dose curve; also: nearly all actives have a fitted effect of over 30% in size); conditions: HEK293H PPARg-UAS-bla, beta-lactamase ratio, antagonist, 17 h
# In short: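 GeneBLAzer PPARg UAS-bla HEK293H cells carrying a UAS-driven beta-lactamase reporter were plated at 3000 cells/well, preincubated 5 h at 37C, then given compound for 17 h at 37C; LiveBLAzer B/G FRET substrate was read after 1 h at room temperature.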
# [3] = qHTS assay to identify small molecule antagonists of the peroxisome proliferator-activated receptor gamma (PPARg) signaling pathway - cell viability counter screen (AID 743194); conditions: PPARg-bla HEK293H viability, CellTiter-Glo luminescence, 17 h, co-treated with 50 nM rosiglitazone; activity change, negative = cytotoxicity: at 62.6 µM (top of the series) unless noted; also: nearly all actives have a fitted effect of over 55% in size
# In short: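 PPARg-UAS-bla HEK293H cells were plated, rested 5 h at 37 C, then treated with compounds plus rosiglitazone (50 nM final) for 17 h at 37 C; viability was then read by CellTiter-Glo luminescence after 30 min at room temperature.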
# [4] = qHTS assay for small molecule agonists of the antioxidant response element (ARE) signaling pathway (AID 743202; active = well fitted activation curve with a large enough effect in the signal ratio in the repeat runs, not every such curve was filed as active; inconclusive = weak or mixed curves, or effect the other way; inactive = no such curve, though single readings can be large or run the other way; the % refers to the signal ratio; as to activation: % is scaled to controls: 0 for no effect and ±100 for the full control effect); conditions: HepG2 ARE-bla reporter, beta-lactamase FRET, 16 h; activation: at 73.3 µM (top of the series) unless noted
# In short: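 Following a 16 h, 37 C exposure of reporter HepG2 cells (ARE-driven beta-lactamase, 2,000 cells/well) to compounds, FRET substrate was applied for 2 h at room temperature and fluorescence intensity recorded.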
# [5] = qHTS assay for small molecule agonists of the antioxidant response element (ARE) signaling pathway - cell viability counter screen (AID 743203; calls by dose curve; also: nearly all actives have a fitted effect of over 55% in size); conditions: ARE-bla HepG2 viability, CellTiter-Glo luminescence, 16 h; viability change, negative = cytotoxic: at 73.3 µM (top of the series)
# In short: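 Viability counter screen: CellTiter-Glo luminescence, read after 30 min at room temperature, in ARE-bla HepG2 wells. Compound exposure lasted 16 h at 37C/5% CO2, following a 5 h pre-incubation of the cells after plating.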
# [6] = qHTS assay for small molecule activators of the heat shock response signaling pathway - cell viability counter screen (AID 743209); conditions: HSE-bla HeLa viability, CellTiter-Glo luminescence, 5 h; activity change, negative = cytotoxicity: at 62.6 µM (top of the series) unless noted; also: nearly all actives have a fitted effect of over 50% in size
# In short: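 Cytotoxicity counter screen run in the same wells as the heat-shock bla reporter assay: HeLa HSE-bla cells, 5 h compound exposure at 37 C, viability read by CellTiter-Glo luminescence.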
# [7] = qHTS assay for small molecule activators of the heat shock response signaling pathway (AID 743210; active = well fitted activation curve with a large enough effect in the signal ratio in the repeat runs, with a control signal flat, not every such curve was filed as active; inconclusive = weak or mixed curves; the % refers to the signal ratio); conditions: HeLa HSE-bla reporter, beta-lactamase ratio, 5 h; activation: at 62.6 µM (top of the series)
# In short: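 Heat shock element–beta-lactamase HeLa reporter cells; qHTS with compounds for 5 h at 37 C; detection by FRET substrate fluorescence after 2.5 h at RT.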
# [8] = molecular target: Peroxisome proliferator-activated receptor delta (Homo sapiens) (UniProt Q03181); assay: qHTS assay to identify small molecule agonists of the peroxisome proliferator-activated receptor delta (PPARd) signaling pathway (AID 743212; calls by dose curve; as to activation: % is scaled to controls: 0 for no effect and ±100 for the full control effect); conditions: HEK293H PPARd-UAS-bla, beta-lactamase FRET ratio, 17 h; activation: at 62.6 µM (top of the series) unless noted
# In short: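 Beta-lactamase reporter read by fluorescence (LiveBLAzer B/G FRET, 2 h, room temperature). Test agents, in DMSO, incubated at 37 C with PPARd-bla HEK293H cells.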
# [9] = qHTS assay to identify small molecule antagonists of the peroxisome proliferator-activated receptor delta (PPARd) signaling pathway - cell viability counter screen (AID 743213); conditions: PPARd-bla HEK293H viability, CellTiter-Glo luminescence, 17 h; viability change, negative = cytotoxic: at 62 µM (top of the series) unless noted; also: nearly all actives have a fitted effect of over 50% in size
# In short: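 Same-well viability: cells pre-incubated 5 h, dosed with compound plus 300 nM L165041, kept 17 h at 37 C, FRET substrate 2 h RT, then CellTiter-Glo 30 min RT and luminescence.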
# [10] = molecular target: Peroxisome proliferator-activated receptor delta (Homo sapiens) (UniProt Q03181); assay: qHTS assay to identify small molecule antagonists of the peroxisome proliferator-activated receptor delta (PPARd) signaling pathway (AID 743215; active = well fitted inhibition curve with a large enough effect in the signal ratio in the repeat runs, not every such curve was filed as active; inconclusive = weak or mixed curves, or effect the other way; inactive = no such curve, though single readings can be large or run the other way; the % refers to the signal ratio;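 also: cells stimulated with agonist L165041 at 300 nM final during compound exposure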); conditions: HEK293H PPARd-UAS-bla, beta-lactamase FRET ratio, antagonist, 17 h; ratio activity, negative = inhibition: at 62 µM (top of the series) unless noted
# In short: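 Agonist L165041 (300 nM final) added with compound to PPARd-bla HEK293H UAS-bla reporter cells; 17 h incubation at 37 C. Read-out: LiveBLAzer FRET substrate, 2 h at room temperature, fluorescence intensity.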
# [11] = molecular target: Bile acid receptor (Homo sapiens) (UniProt Q96RI1); assay: qHTS assay to identify small molecule antagonists of the farnesoid-X-receptor (FXR) signaling pathway (AID 743217; active = well fitted inhibition curve with a large enough effect in the signal ratio in the repeat runs, not every such curve was filed as active; inconclusive = weak or mixed curves, or effect the other way; inactive = no such curve, though single readings can be large or run the other way; the % refers to the signal ratio); conditions: HEK293T FXR-UAS-bla, beta-lactamase ratio, CDCA-stimulated, 16 h; activity change, negative = inhibition: at 62.6 µM (top of the series) unless noted
# In short: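 Antagonist mode: chenodeoxycholic acid at 50 uM final stimulates a UAS-driven beta-lactamase reporter in HEK 293T FXR-bla cells during 16 h, 37C compound exposure. Read-out is FRET substrate fluorescence after 2 h at room temperature.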
# [12] = qHTS assay to identify small molecule agonists of the farnesoid-X-receptor (FXR) signaling pathway - cell viability counter screen (AID 743218); conditions: FXR-bla HEK293T viability, CellTiter-Glo luminescence, 16 h; viability change, negative = cytotoxic: at 62.6 µM (top of the series) unless noted; also: nearly all actives have a fitted effect of over 45% in size
# In short: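 Viability counter screen in the same wells: CellTiter-Glo luminescence, 30 min room-temperature incubation, measured after the beta-lactamase read. Cells were GeneBLAzer FXR-UAS-bla HEK 293T, compound-treated 16 h at 37C.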
# [13] = molecular target: Bile acid receptor (Homo sapiens) (UniProt Q96RI1); assay: qHTS assay to identify small molecule agonists of the farnesoid-X-receptor (FXR) signaling pathway (AID 743220; active = well fitted activation curve with a large enough effect in the signal ratio in the repeat runs, not every such curve was filed as active; inconclusive = weak or mixed curves, or effect the other way; the % refers to the signal ratio); conditions: HEK293T FXR-UAS-bla, beta-lactamase FRET ratio, 16 h; activation: at 62.6 µM (top of the series) unless noted
# In short: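 FXR-UAS-bla HEK 293T cells carrying a UAS-driven beta-lactamase reporter were plated for 5 h at 37C/5% CO2, then exposed to DMSO-dissolved Tox21 10K compounds for 16 h at 37C. A LiveBLAzer B/G FRET substrate was loaded for 2 h at room temperature before fluorescence reading.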
# [14] = qHTS assay to identify small molecule antagonists of the farnesoid-X-receptor (FXR) signaling pathway - cell viability counter screen (AID 743221; active = well fitted cell-killing curve with a large enough effect in the repeat runs, not every such curve was filed as active; inconclusive = weak or mixed curves, or effect the other way; inactive = no such curve, though single readings can be large or run the other way; also: nearly all actives have a fitted effect of over 50% in size); conditions: FXR-bla HEK293T viability, CellTiter-Glo luminescence, 16 h; activity change, negative = cytotoxicity: at 62.6 µM (top of the series)
# In short: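 GeneBLAzer FXR-UAS-bla HEK 293T cells, compound plus chenodeoxycholic acid (50 uM final), 16 h at 37 C. CellTiter-Glo added to the same wells after the beta-lactamase read; luminescence read after 30 min at room temperature as viability.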
# [15] = molecular target: Vitamin D3 receptor (Homo sapiens) (UniProt P11473); assay: qHTS assay to identify small molecule agonists of the vitamin D receptor (VDR) signaling pathway (AID 743222; calls by dose curve; as to activation: % is scaled to controls: 0 for no effect and ±100 for the full control effect); conditions: HEK293T VDR-UAS-bla, beta-lactamase FRET ratio, 16 h
# In short: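 Agonist mode, beta-lactamase reporter: fluorescence from LiveBLAzer B/G FRET substrate (2 h, room temperature) read after 16 h compound treatment at 37 C of VDR-bla cells, which were pre-incubated 4 h after seeding.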
# [16] = molecular target: Vitamin D3 receptor (Homo sapiens) (UniProt P11473); assay: qHTS assay to identify small molecule antagonists of the vitamin D receptor (VDR) signaling pathway (AID 743223; active = well fitted inhibition curve with a large enough effect in the signal ratio in the repeat runs, not every such curve was filed as active; inconclusive = weak or mixed curves, or effect the other way; inactive = no such curve, though single readings can be large or run the other way; the % refers to the signal ratio); conditions: VDR-UAS-bla HEK293T, beta-lactamase FRET ratio, 16 h
# In short: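 VDR-bla cells were treated with compound plus 3 nM final 1alpha,25-dihydroxyvitamin D3 for 16 h at 37C. Beta-lactamase reporter read by B/G FRET substrate fluorescence after 2 h at room temperature. qHTS format.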
# [17] = qHTS assay to identify small molecule antagonists of the vitamin D receptor (VDR) signaling pathway - cell viability counter screen (AID 743225); conditions: VDR-bla HEK293T viability, CellTiter-Glo luminescence, 16 h; viability change, negative = cytotoxic: at 61 µM (top of the series) unless noted; also: nearly all actives have a fitted effect of over 50% in size
# In short: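 VDR-UAS-bla HEK 293T cells were plated and incubated 4 h at 37C, then dosed with compound plus 3 nM (final) 1-alpha,25-dihydroxyvitamin D3 for 16 h. After the 2 h beta-lactamase read, viability in the same wells was read as CellTiter-Glo luminescence after 30 min at room temperature.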
# [18] = qHTS assay to identify small molecule agonists of the peroxisome proliferator-activated receptor delta (PPARd) signaling pathway - cell viability counter screen (AID 743211); conditions: PPARd-bla HEK293H viability, CellTiter-Glo luminescence, 17 h; activity change, negative = cytotoxicity: at 62.6 µM (top of the series); also: nearly all actives have a fitted effect of over 55% in size
# In short: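 PPARd-bla HEK293H cells (3000/well) were pre-incubated 5 h at 37 C, then exposed to compound for 17 h at 37 C. After 2 h with LiveBLAzer substrate, CellTiter-Glo was added to the same wells; luminescence read after 30 min at room temperature.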
# [19] = qHTS assay to identify small molecule agonists of the vitamin D receptor (VDR) signaling pathway - cell viability counter screen (AID 743224); conditions: VDR-bla HEK293T viability, CellTiter-Glo luminescence, 16 h; activity change, negative = cytotoxicity: at 62.6 µM (top of the series) unless noted; also: nearly all actives have a fitted effect of over 50% in size
# In short: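 Counter screen run in the same wells as the VDR-bla reporter assay: CellTiter-Glo luminescence, 30 min at room temperature, after 16 h compound treatment at 37C of cells pre-plated for 4 h.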
# [20] = ratio activity, negative = inhibition: at 62.6 µM (top of the series) unless noted
# [21] = activation: at 63.5 µM (top of the series) unless noted
# Potency is read from the fitted curve at half-maximal effect; tags tell the direction and shape of the fitted curve or compound fluorescence and quenching.
# Chain of UniProt Q03181 (Q03181 whole entry, looked up): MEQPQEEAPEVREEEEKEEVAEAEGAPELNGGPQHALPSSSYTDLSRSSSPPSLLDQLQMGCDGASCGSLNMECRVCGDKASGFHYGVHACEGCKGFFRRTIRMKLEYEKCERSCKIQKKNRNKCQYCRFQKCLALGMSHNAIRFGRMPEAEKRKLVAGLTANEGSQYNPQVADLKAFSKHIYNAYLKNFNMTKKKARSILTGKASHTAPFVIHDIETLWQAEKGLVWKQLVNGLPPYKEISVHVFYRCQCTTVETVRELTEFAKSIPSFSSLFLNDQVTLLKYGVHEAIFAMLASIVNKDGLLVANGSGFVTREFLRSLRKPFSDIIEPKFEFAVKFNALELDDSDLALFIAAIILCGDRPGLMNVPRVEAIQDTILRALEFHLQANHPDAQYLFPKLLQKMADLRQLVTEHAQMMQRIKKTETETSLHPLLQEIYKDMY
# Chain of UniProt Q96RI1 (Q96RI1 whole entry, looked up): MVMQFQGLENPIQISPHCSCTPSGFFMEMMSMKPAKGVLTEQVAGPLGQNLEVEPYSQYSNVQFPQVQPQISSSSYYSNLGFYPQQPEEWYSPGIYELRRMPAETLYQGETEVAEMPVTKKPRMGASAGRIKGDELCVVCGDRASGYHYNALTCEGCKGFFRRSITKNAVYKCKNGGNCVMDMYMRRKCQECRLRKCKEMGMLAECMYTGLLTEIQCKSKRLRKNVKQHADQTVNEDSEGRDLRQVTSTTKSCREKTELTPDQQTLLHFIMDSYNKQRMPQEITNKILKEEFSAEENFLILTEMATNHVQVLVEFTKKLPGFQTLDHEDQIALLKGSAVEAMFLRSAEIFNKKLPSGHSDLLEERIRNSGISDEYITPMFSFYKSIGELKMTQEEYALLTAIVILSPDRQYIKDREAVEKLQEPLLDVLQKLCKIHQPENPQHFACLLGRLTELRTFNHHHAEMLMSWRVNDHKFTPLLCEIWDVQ
# Chain of UniProt P37231 (P37231 whole entry, looked up): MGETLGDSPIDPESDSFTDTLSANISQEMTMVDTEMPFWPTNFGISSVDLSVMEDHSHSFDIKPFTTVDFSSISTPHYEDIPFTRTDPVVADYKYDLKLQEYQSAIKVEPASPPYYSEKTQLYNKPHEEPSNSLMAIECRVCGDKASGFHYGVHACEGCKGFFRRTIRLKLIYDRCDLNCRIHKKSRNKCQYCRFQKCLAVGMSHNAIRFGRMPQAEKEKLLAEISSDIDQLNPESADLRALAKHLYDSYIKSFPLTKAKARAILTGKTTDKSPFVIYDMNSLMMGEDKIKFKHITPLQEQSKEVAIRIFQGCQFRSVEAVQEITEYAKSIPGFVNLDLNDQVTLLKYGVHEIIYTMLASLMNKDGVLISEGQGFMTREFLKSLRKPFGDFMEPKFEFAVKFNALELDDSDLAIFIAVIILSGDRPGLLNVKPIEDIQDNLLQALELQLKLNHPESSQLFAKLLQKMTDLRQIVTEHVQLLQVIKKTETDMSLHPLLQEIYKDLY
# Chain of UniProt P11473 (P11473 whole entry, looked up): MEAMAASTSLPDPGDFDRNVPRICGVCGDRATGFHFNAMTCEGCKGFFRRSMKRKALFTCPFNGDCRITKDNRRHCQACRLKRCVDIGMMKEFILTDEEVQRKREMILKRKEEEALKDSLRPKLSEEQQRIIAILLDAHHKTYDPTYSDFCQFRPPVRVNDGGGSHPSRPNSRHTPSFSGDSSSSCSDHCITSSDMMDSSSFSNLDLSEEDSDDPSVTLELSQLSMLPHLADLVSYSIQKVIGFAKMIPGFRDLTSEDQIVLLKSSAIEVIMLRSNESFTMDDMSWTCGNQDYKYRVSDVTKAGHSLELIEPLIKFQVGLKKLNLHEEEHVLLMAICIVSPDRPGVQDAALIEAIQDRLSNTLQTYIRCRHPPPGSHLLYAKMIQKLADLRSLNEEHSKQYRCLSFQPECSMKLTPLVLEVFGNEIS
compound,measurement,setting,value
CN(C)CCOc1ccc(/C(=C(/CCCl)c2ccccc2)c2ccccc2)cc1,Potency,[1],"inconclusive: 45.8 µM [falling, single point]"
same,Potency,[2]; [20],inconclusive: 51.4 µM [cytotoxic]
same,Potency,[3],active: 25.8 µM
same,Potency,[4],"inconclusive: 32.2 µM [falling, partial curve]"
same,Potency,[5],active: 16.1 µM
same,Potency,[6],active: 28.9 µM
same,Potency,[7],"inconclusive: 40.9 µM [rising, partial curve]"
same,Potency,[8],inconclusive: 51.4 µM [single point]
same,Potency,[9],active: 10.3 µM
same,Potency,[10],"inconclusive: 12.9 µM [rising, partial curve]"
same,Potency,[11],"inconclusive: 9.15 µM [rising, partial curve, poor fit]"
same,Potency,[12],active: 20.5 µM
same,Potency,[13],inconclusive: 51.4 µM [single point]
same,Potency,[14],active: 40.9 µM
same,activation,[15]; [21],inconclusive: 22.8%
same,Potency,"[16]; activity change, negative = inhibition: at 61 µM (top of the series) unless noted","inconclusive: 14.5 µM [rising, partial curve]"
same,Potency,[17],active: 12.9 µM
Clc1ccccc1C(c1ccccc1)(c1ccccc1)n1ccnc1,Potency,[1],"inconclusive: 54.9 µM [falling, single point]"
same,activation,[1],inconclusive: -13.8% [at 26.2 µM]
same,Potency,[3],"active: 24.5 µM and inconclusive: 33.5 µM [cytotoxic, single point]"
same,Potency,[5],"active: 30.6 µM and inconclusive: 33.5 µM [cytotoxic, single point]"
same,Potency,[7],inconclusive: 26.5 µM and inconclusive: 27.6 µM
same,Potency,[18],active: 54.9 µM and inconclusive: 29.8 µM [cytotoxic]
same,Potency,[9],"inconclusive: 61.6 µM [cytotoxic, single point]"
same,Potency,[12],"active: 54.9 µM and inconclusive: 33.5 µM [cytotoxic, single point]"
same,Potency,[15]; [21],"inconclusive: 11.9 µM [rising, full curve]"
same,Potency,[19],inconclusive: 54.9 µM [cytotoxic] and inconclusive: 33.5 µM [cytotoxic]
same,Potency,[17],"inconclusive: 54.9 µM [cytotoxic, single point]"
C[C@]12CC[C@@H]3c4ccc(O)cc4CC[C@H]3[C@@H]1CC[C@@H]2OC(=O)CCC1CCCC1,activation,[15]; at 63.5 µM (top of the series),inactive: -0.47%
Cc1ccc(N)c(S(=O)(=O)O)c1,activation,[1],inconclusive: 3.84% [at 78.9 µM]
same,Potency,[3],"inconclusive: 0.222 µM [rising, full curve, poor fit]"
same,Potency,[4],inactive
same,Potency,[8],inactive
same,Potency,[12],"inconclusive: 0.222 µM [rising, full curve, poor fit]"
same,Potency,[13],inactive
same,"activity change, negative = inhibition",[16]; at 61 µM (top of the series),inconclusive: 1.05%
same,"activity change, negative = inhibition",[16]; at 78.8 µM (top of the series),inconclusive: 24.1%
COc1ccc(OC)cc1,"ratio activity, negative = inhibition",[2]; at 81.1 µM (top of the series),inactive: 12.1%
same,"ratio activity, negative = inhibition",[2]; [20],inconclusive: -1.54%
same,Potency,[18],inactive

# Source: PubChem BioAssay (Tox21)
